Values joined by “and” are separate entries in the source; they are usually repeats but may differ in a detail not shown here. Equal entries are not always repeated. This is one part of the list. Further columns of the screen follow, without active or inactive calls. Most of these compounds were active or inconclusive in the main read-out, so they are no random draw. The note in brackets gives the kind of curve behind each potency; many fits are weak.
Experiment: qHTS Assay for Lipid Storage Modulators (AID 1519)
Conditions: Drosophila S3 cells, BODIPY lipid droplet/cell ratio, laser cytometry, cells loaded with oleic acid
Summary of the method: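 Cells seeded at 5,000 per well were treated with compounds over a concentration series and loaded with oleic acid (400 uM, as added). Lipid droplet fluorescence (488 nm excitation, 500-530 nm channel) was read by laser-scanning cytometry and normalized to 20 uM Triacsin C.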

[1] = measured here: cell count channel max response
[2] = measured here: cell number channel AC50
[3] = measured here: lipid (BODIPY) channel AC50
[4] = measured here: lipid channel max response
Tags tell the direction and shape of the fitted curve.

Q: Which max response [1] does the source give for `CN(C)CCCCSC(=N)N` here?
A: -32.3% and 27%

Q: What about the AC50 [2] of the same compound?
A: 0.0316 µM [falling, full curve, poor fit]

Q: And the AC50 [3]?
A: 0.0398 µM [falling, full curve, poor fit]

Q: And the max response [4]?
A: -35% and 25.7%

Q: For `Cc1cc(/C=C/c2ccc3cc(N(C)C)ccc3[n+]2C)c(C)n1-c1ccccc1`, which max response [1] is on record?
A: -89.4%

Q: What about the AC50 [2] of the same compound?
A: 39.8 µM [falling, single point]

Q: And the AC50 [3]?
A: 39.8 µM [falling, single point]

Q: What about the max response [4] of the same compound?
A: -103%

Q: For `COc1ccccc1-c1nc(NCCN2CCOCC2)c2ccccc2n1`, which max response [1] is on record?
A: 36.2%

Q: And the AC50 [2]?
A: 2.82 µM [rising, full curve]

Q: What about the AC50 [3] of the same compound?
A: 3.16 µM [rising, full curve]

Q: And the max response [4]?
A: 45.2%

Q: For `CCOC(=O)C1=C(C)NC(c2ccccc2)=C(C(=O)OCc2ccc([N+](=O)[O-])cc2)[C@@H]1C#Cc1ccccc1`, which max response [1] is on record?
A: 81.9%

Q: What about the AC50 [2] of the same compound?
A: 4.47 µM [rising, partial curve]

Q: And the AC50 [3]?
A: 10 µM [rising, partial curve, poor fit]

Q: What about the max response [4] of the same compound?
A: 106%

Q: For `Cc1nc2cnc(OCc3ccccc3)nc2n(CCC#N)c1=O`, which max response [1] is on record?
A: 19.4%

Q: What about the AC50 [2] of the same compound?
A: 0.0224 µM [rising, full curve, poor fit]

Q: What about the AC50 [3] of the same compound?
A: 0.0224 µM [rising, full curve]

Q: And the max response [4]?
A: 27.6%

Q: Which results are given for `c1ccc(Nc2ncncc2-c2ccoc2)cc1`?
A: max response [1]: 16.8%; AC50 [2]: 1.41 µM [rising, full curve, poor fit]; AC50 [3]: 1.26 µM [rising, full curve, poor fit]; max response [4]: 20.1%

Q: With `N#Cc1ccccc1-c1ccc2ncnc(NCc3ccccc3)c2c1` as the compound, how does the max response [1] read?
A: -4.29%

Q: What about the AC50 [2] of the same compound?
A: 2 µM [rising, partial curve]

Q: What about the AC50 [3] of the same compound?
A: 1.58 µM [rising, full curve]

Q: And the max response [4]?
A: -6.22%

Reference: PubChem BioAssay (NCATS)
